PubChem BioAssay AID624202 (National Center for Advancing Translational Sciences (NCATS), 2012)
The whole screen tested about 380,000 compounds, of which about 4,000 (1.1%) were called active. This list was built around the results that the source calls inconclusive (neither active nor inactive); the mix of calls is not that of the screen. Calls follow the shape of the dose curve; as a rule, active = well fitted activation curve with a large enough effect; inconclusive = small, poorly fitted or top-dose-only effect; inactive = no such curve, though single readings can be large or run the other way. Potencies of inconclusive entries are doubtful fits and often do not repeat. Where a structure was tested more than once in an assay, its records may differ in their call.

Test: qHTS Assay to Identify Small Molecule Activators of BRCA1 Expression; also: nearly all actives have a fitted effect of over 80% in size
Settings: MCF7-BRCA1-FFLuc reporter, luminescence, 48 h; activation: at 46.1 µM (top of the series), scaled: vehicle 0%, 10 µM genistein 100% unless noted
Outline: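 MCF7-BRCA1-FFLuc cells, 2000/well in phenol-red-free MEM, attached 2 h then treated 48 h at 37 C. Luciferase luminescence read 15 min after reagent; normalized to genistein maximum activation (10microM) and DMSO, concentration-response fitted.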
Potency is read from the fitted curve at half-maximal effect; tags tell the direction and shape of the fitted curve.

Structure (SMILES) | Potency | activation
COc1cccc(OCc2cc(C(=O)N(C)Cc3nc(C)cs3)no2)c1 | inconclusive: 11.2 µM [activator, partial curve, poor fit] | 
N#C/C(C(=O)c1ccccc1)=C1/CCCCCN1 | active: 3.98 µM | 
Cc1ccc(NC(=O)CCCNC(=O)c2ccc(Cl)cc2)nc1 | inconclusive: 12.6 µM [activator, partial curve, poor fit] | 
O=C(Nc1nc(-c2ccccc2)cs1)C1COc2ccccc2O1 (stereo not given) | inconclusive: 35.5 µM [activator, single point] | 
C/C(=N\Nc1nc2ccccc2c(=O)n1O)c1ccco1 | inconclusive: 7.08 µM [activator, partial curve, poor fit] | 
Cc1ccc(-n2nnnc2SCC(=O)NC(=O)Nc2ccc3c(c2)OCCO3)cc1 | inconclusive: 15.8 µM [activator, partial curve, poor fit] | 
C[C@H](NC(=O)c1nc[nH]c1C(=O)N[C@H](C)c1ccccc1)C(=O)OCc1ccccc1 |  | inactive: 6.38%
O=C(/C=C/c1ccc(O)c(O)c1)NC(=O)c1ccccc1O | inconclusive: 14.1 µM [activator, partial curve, poor fit] | 
O=C(O)c1cccc(-c2csc(C(O)c3ccc(F)c(F)c3)n2)c1 (stereo not given) | inconclusive: 8.91 µM [activator, partial curve, poor fit] | 
CC1=C(C(=O)N(C(C)C)C(C)C)CC(CC(=O)NCCCN(C)C)C(=O)N1CCCN1CCCC1=O (stereo not given) |  | inactive: 10.4%
CN(c1ccc(O)cc1)c1nc(-c2ccccc2)cs1 | inconclusive: 3.98 µM [activator, partial curve, poor fit] | 
COC(=O)c1ccc(C2=NOC(C)(c3sc(-c4ccc(Cl)cc4)nc3C)C2)cc1 (stereo not given) | inconclusive: 12.6 µM [activator, partial curve, poor fit] | 
O=C(Nc1nc2ccsc2c(=O)s1)c1ccc(F)cc1 | inconclusive: 12.6 µM [activator, partial curve, poor fit] | 
Fc1ccc(-n2cc(-c3ccccc3)c3c(NN4CCOCC4)ncnc32)cc1 |  | inactive: -31.6%
C(=N\NC(=Nc1ccccc1)c1ccccn1)/c1ccccn1 |  | inactive: -83.1%
O=[N+]([O-])c1ccccc1CSc1nnc2ccccn12 | inconclusive: 15.8 µM [activator, partial curve, poor fit] | 
COC(=O)[C@@H](Cc1ccccc1)NC(=O)/C=C/[C@H]1O[C@@H](n2cnc3c(NC(=O)c4ccccc4)ncnc32)[C@H](O)[C@@H]1O |  | inactive: 10.5%
O=C(Nc1cccc2nsnc12)c1cccs1 | active: 7.08 µM | 
O=C(Cn1cnc2ccccc2c1=O)c1ccc(Cl)cc1 | active: 8.91 µM | 
CCOC(=O)c1cnc(SCC(=O)Nc2sc(C)c(C)c2C#N)nc1N |  | inactive: 0.844%
COc1ccc(C(=O)Nc2ccc(F)cc2F)cc1 | active: 6.31 µM | 
O=C1CC(c2ccccc2)Cc2[nH]c(=O)c(C(=O)O)cc21 (stereo not given) |  | inactive: 11.9%
CCOC(=O)c1ccc(NCc2ccc3c(c2)OCO3)cc1 |  | inconclusive: 69.2% [activator]

Structure (SMILES) | Potency | activation
CCCN1CCc2c(sc3nc(SC)n(-c4ccccc4)c(=O)c23)C1 |  | inactive: -16%
C=C(C)CSc1nnc(-c2ccc(OC)cc2)n1N | inconclusive: 10 µM [activator, partial curve, poor fit] | 
NC(=O)c1ccccc1NC(=O)c1ccc2c(c1)OCO2 | inconclusive: 2.24 µM [activator, partial curve, poor fit] | 
Cc1csc(N(C(=O)c2cccc(S(=O)(=O)N(C)C)c2)c2ccccc2)n1 |  | inactive: 3.51%
Cc1csc(=O)n1CCC(=O)OCC(=O)Nc1ccc(S(N)(=O)=O)cc1 |  | inactive: -0.931%
O=Cc1c(-c2ccc(Cl)cc2)oc2ccc(O)cc12 | inconclusive: 15.8 µM [activator, partial curve, poor fit] | 
CCn1c(SCC(O)c2ccccc2)nnc1-c1ccccc1 (stereo not given) | active: 11.2 µM | 
COc1ccccc1NC(=O)COc1ccccc1C(=O)c1cnn(-c2ccccc2)c1 | active: 12.6 µM | 
COc1ccc(C(=O)Cc2cc(OC)c(OC)cc2[N+](=O)[O-])cc1 | active: 11.2 µM | 
O=C(c1ccccc1)c1ccc(N2CCOCC2)cc1 | inconclusive: 1.26 µM [activator, full curve, poor fit] | 
Cc1ccn2c(NC3CCCC3)c(-c3cccs3)nc2c1 | inconclusive: 25.1 µM [activator, single point] | 
C[C@H]1COC(=O)[C@H](Cc2ccc(F)cc2)C/C=C\C[C@@H](CC(=O)NCCO)C(=O)N1 |  | inactive: 0%
CCC1=C[C@@H]2CN(C1)Cc1c([nH]c3ccccc13)[C@@](C(=O)OC)(c1cc3c(cc1OC)N(C)[C@H]1[C@@](O)(C(=O)OC)[C@H](OC(C)=O)[C@]4(CC)C=CCN5CC[C@]31[C@@H]54)C2 |  | inconclusive: -64.7% [activator]
Cc1ccc(C(=O)O/N=C(\N)c2ccc(C(F)(F)F)cn2)cc1 | inconclusive: 15.8 µM [activator, partial curve, poor fit] | 
Nc1nc(N2CCN(C(=O)c3ccco3)CC2)nc2ccc(Br)cc12 | inconclusive: 1.78 µM [activator, full curve, poor fit] | 
CCn1c(SCC(=O)c2ccc(Cl)s2)nnc1-c1cccs1 | inconclusive: 17.8 µM [activator, partial curve, poor fit] | 
CC(=O)NC(=S)Nc1sc2c(c1C#N)CCCCC2 | inconclusive: 2 µM [activator, partial curve, poor fit] | 
COc1ccc2c(c1)c(=O)cc(-c1ccccc1)n2C | inconclusive: 12.6 µM [activator, single point] | 
CCCNC(=O)/C=C/c1ccc(C(C)C)cc1 | active: 12.6 µM | 
Cn1cccc1C(=O)C(=O)Nc1ccc(F)c(F)c1 | active: 5.62 µM | 
O=C(Cn1cccc1C(=O)c1ccccc1)NCc1ccccc1Cl | inconclusive: 14.1 µM [activator, partial curve, poor fit] | 
O=C(NCCc1ccc(Cl)cc1)c1ccc2c(c1)OCO2 | inconclusive: 1.58 µM [activator, full curve, poor fit] | 
